Results taken from PubChem BioAssay AID504333 (National Center for Advancing Translational Sciences (NCATS), 2011).
Among all 360,000 compounds or so, about 16,000 (4.4%) were called active. The shares of active, inactive and inconclusive entries below differ from those in the screen. The call rests on the fitted dose curve; in most records, active means well fitted inhibition curve with a large enough effect; inconclusive means small, poorly fitted or top-dose-only effect; inactive means no such curve, though single readings can be large or run the other way. A potency beside an inconclusive call is a rough fit, not a confirmed value.

These compounds were tested against Bromodomain adjacent to zinc finger domain protein 2B (Homo sapiens) (UniProt Q9UIF8) (assay: qHTS Assay for Inhibitors of BAZ2B). Details: AlphaScreen BAZ2B-H3K14Ac peptide displacement; activity change, negative = inhibition: at 114 µM (top of the series) unless noted.
Outline: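 In this displacement format the biotinylated H3(5-23) peptide acetylated at Lys14 serves as ligand at 50 nM, with BAZ2B at 50 nM in PBS pH 7.4 containing 0.01% Tween-20. Donor and acceptor beads are 10 ug/mL final.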
Further: nearly all actives have a fitted effect of over 60% in size.
On the % scale 0 is the no-effect control and ±100 the full control effect; potency means the concentration at half of the fitted maximal effect; tags describe the fitted curve by direction and shape.

Chain of UniProt Q9UIF8 (Q9UIF8 whole entry, looked up, the tested form may be a part): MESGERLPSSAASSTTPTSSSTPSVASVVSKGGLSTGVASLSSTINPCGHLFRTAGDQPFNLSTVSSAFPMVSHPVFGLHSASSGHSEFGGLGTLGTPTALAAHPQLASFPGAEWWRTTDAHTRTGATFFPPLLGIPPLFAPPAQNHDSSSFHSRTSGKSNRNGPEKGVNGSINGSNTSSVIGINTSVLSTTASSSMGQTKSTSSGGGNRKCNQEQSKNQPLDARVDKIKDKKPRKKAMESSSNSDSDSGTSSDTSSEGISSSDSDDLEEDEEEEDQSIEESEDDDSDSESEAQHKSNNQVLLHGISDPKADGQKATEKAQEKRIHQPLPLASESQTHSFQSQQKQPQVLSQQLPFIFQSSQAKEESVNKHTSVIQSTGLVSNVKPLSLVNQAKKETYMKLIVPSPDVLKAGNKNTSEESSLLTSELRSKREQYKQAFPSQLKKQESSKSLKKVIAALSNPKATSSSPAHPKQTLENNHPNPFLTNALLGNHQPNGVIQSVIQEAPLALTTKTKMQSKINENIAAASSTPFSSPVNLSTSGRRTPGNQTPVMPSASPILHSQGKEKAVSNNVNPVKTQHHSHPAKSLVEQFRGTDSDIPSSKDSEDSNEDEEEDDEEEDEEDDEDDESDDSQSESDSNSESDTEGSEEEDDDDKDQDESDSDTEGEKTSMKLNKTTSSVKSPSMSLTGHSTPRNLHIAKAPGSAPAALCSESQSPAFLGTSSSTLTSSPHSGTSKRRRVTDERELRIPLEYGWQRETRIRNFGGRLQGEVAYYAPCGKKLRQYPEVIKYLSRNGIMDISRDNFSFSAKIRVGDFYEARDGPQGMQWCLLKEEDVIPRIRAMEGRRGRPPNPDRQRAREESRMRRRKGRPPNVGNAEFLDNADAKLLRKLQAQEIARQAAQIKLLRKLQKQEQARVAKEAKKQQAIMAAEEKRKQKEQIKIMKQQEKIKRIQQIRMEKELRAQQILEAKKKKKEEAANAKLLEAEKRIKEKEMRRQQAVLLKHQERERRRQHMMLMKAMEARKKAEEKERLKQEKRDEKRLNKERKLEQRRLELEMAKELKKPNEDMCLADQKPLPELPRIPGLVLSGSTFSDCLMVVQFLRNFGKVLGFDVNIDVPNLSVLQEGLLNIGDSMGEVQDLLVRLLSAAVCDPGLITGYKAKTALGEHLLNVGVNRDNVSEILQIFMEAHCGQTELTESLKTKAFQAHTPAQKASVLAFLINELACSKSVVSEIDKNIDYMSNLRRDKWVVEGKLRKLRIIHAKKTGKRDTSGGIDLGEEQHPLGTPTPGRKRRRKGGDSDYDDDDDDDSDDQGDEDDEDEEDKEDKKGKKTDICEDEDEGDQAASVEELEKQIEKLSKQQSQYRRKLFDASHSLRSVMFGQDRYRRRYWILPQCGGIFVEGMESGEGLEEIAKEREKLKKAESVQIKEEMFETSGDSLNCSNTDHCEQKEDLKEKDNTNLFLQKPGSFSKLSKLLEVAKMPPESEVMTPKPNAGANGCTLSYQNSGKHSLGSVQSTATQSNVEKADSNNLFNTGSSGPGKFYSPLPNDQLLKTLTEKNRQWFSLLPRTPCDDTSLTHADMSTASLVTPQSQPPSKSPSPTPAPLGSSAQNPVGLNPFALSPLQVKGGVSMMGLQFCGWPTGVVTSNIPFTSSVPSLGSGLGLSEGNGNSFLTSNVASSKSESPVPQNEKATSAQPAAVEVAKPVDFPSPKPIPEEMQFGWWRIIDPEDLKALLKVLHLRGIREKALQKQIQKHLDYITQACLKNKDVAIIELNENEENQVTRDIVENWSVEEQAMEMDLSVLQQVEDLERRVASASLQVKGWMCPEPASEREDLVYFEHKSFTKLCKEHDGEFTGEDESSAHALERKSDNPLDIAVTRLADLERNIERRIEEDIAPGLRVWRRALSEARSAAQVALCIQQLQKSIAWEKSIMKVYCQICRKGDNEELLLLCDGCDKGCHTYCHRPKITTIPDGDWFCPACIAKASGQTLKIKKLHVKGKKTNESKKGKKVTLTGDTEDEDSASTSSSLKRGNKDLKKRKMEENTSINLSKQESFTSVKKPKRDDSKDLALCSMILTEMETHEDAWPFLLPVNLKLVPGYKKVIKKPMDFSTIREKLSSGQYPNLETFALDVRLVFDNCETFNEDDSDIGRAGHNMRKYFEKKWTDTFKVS

Compound	Potency	activity change, negative = inhibition
C=CCN1C(c2cccc(C(F)(F)F)c2)=CS/C1=C(/C#N)c1nnc(N2CCOCC2)n1-c1ccccc1	active: 50.1 µM	
COc1cc(NC(=O)CCc2nc3cccnc3n2Cc2cccs2)cc(OC)c1OC	inconclusive: 79.4 µM [inhibitor, single point]	
O=C(NCC1CCCN(C(=O)NCc2ccccc2)C1)c1ccc2c(c1)OCO2 (stereo not drawn)		inactive: -17.1%
Cc1ccc(OCC(O)CN2CCN(CCO)CC2)c(C)c1 (stereo not drawn)	inconclusive: 100 µM [inhibitor, single point]	
O=C(CCc1nc2cccnc2n1-c1ccccc1)Nc1ccc(Cl)c(Cl)c1	inconclusive: 79.4 µM [inhibitor, partial curve]	
CCOc1cc(CNCCc2ccc(S(N)(=O)=O)cc2)cc(Cl)c1OCc1ccccc1	inconclusive: 89.1 µM [inhibitor, single point]	
CCN(CC)CCN(C(=O)c1cc2c(ccc3ccccc32)oc1=O)c1nc2cc3c(cc2s1)OCCO3	inconclusive: 79.4 µM [inhibitor, single point]	
Cc1ccc(NCc2nnc(SCC(=O)N(Cc3ccccc3)C(C)(C)C)o2)c(C)c1	inconclusive: 28.2 µM [inhibitor, full curve]	
CCN1CCN(c2ccc(S(=O)(=O)N3CCCCC3)cc2NC(=O)COc2ccccc2)CC1	inconclusive: 89.1 µM [inhibitor, single point]	
Cc1ccsc1/C=N/Nc1nc(=O)[nH]nc1C	active: 31.6 µM	
COc1cc2c(cc1OC)CN(C(=O)c1ccc(OC)c([N+](=O)[O-])c1)CC2		inactive: -4.92%
Cc1cccc(C(=O)NC2CC(C)(C)NC(C)(C)C2)c1		inactive: -6.2%
CC1CCCc2sc3nc(NCc4ccco4)n4ncnc4c3c21 (stereo not drawn)	inconclusive: 50.1 µM [inhibitor, partial curve]	
CN(C)S(=O)(=O)c1cccc(NC(=O)CNC2CCCCC2)c1	inconclusive: 89.1 µM [inhibitor, single point]	
COc1ccc(/C=C/C(=O)Nc2nc3n(n2)C(c2ccccc2)C=C(c2ccc(Cl)cc2)N3)cc1 (stereo not drawn)		inactive: -5.4%
COc1ccc2c(Sc3ccccc3)c(C(=O)NCCCN3CCCCC3)[nH]c2c1	inconclusive: 79.4 µM [inhibitor, single point]	
CCOc1ccc(Cn2c(=O)sc3ccccc32)cc1OC		inactive: 4.25%
CCc1nnc(NS(=O)(=O)c2ccc(NC(=S)NC(=O)/C=C/c3ccc(OC)cc3)cc2)s1	inconclusive: 89.1 µM [inhibitor, single point]	
Cc1ccc(C(=O)OCC(=O)NCc2ccco2)s1		inactive: 18.6%
CC1CCN(C2CCN(C(=O)c3ccccc3F)CC2)CC1	inconclusive: 70.8 µM [inhibitor, partial curve]	
CCOc1ccc(CCNC(=O)CSc2n[nH]c(N)n2)cc1OCC		inactive: -23.3%
CN1CCN(C(=O)CCCN2C(=O)/C(=C/c3ccccc3)SC2=S)CC1	inconclusive: 56.2 µM [inhibitor, single point]	
Cc1c(N=Nc2ccc(N(C)C)cc2)c(=O)n(-c2ccccc2)n1C	inconclusive: 70.8 µM [inhibitor, single point]	
CCN1CCN(C(=O)Nc2ccccc2OC)CC1	active: 28.2 µM	
Cc1ccc2c(c1)N(C(=O)C1CCN(S(=O)(=O)c3c(C)noc3/C=C/c3ccccc3F)CC1)CCO2		inactive: -11.7%

Compound	Potency	activity change, negative = inhibition
Cc1cccc(CCNC(=O)c2cnc3c(C)cccn3c2=O)c1		inactive: 10.4%
CCc1ccc(C(=O)NC(=S)Nc2ccc3c(c2)OCCO3)cc1	inconclusive: 35.5 µM [inhibitor, partial curve]	
COc1ccccc1CNC(=O)Cc1csc2nc(-c3ccccc3)cn12	inconclusive: 70.8 µM [inhibitor, single point]	
COC(=O)CN1C(c2ccc(OC)cc2)=Nc2ccc(Cl)cc2C1c1ccccc1 (stereo not drawn)	inconclusive: 70.8 µM [inhibitor, single point]	
Cc1cc(C(=O)NC2CCCN(Cc3ccc(Cl)cc3)C2)c(C)o1 (stereo not drawn)	inconclusive: 70.8 µM [inhibitor, single point]	
CC(=O)c1ccc(OCC(O)CN2CCN(CCO)CC2)cc1 (stereo not drawn)		inactive: 3.52%
O=C(COc1cc2oc(=O)c3c(c2cc1Cl)CCC3)NCCCn1ccnc1		inactive: -35.9%
CC(C)(C)c1cc[n+](-c2nc([O-])sc2C=O)cc1		inactive: 3.8%
COc1ccccc1C(C)NC(=O)c1cc(=O)[nH]c2ccccc12 (stereo not drawn)	inconclusive: 56.2 µM [inhibitor, partial curve, poor fit]	
COc1cc2[nH]c(=O)n(Cc3ccc(C(=O)N4CCN(c5cc(Cl)ccc5C)CC4)cc3)c(=O)c2cc1OC	inconclusive: 63.1 µM [inhibitor, single point]	
COc1ccc(O)c(C(=O)c2cc(C#N)c(=O)n(Cc3ccccc3)c2)c1	inconclusive: 79.4 µM [inhibitor, partial curve]	
COc1ccc(OC)c(CNc2ccc3c(c2)CCC3)c1	inconclusive: 50.1 µM [inhibitor, partial curve]	
NC(=O)CC(NC(=O)c1cccc(Br)c1)c1ccc(N2CCCCCC2)c([N+](=O)[O-])c1 (stereo not drawn)	inconclusive: 44.7 µM [inhibitor, partial curve]	
COc1ccccc1Nc1n[nH]c(=S)s1	active: 20 µM	
C[C@@H](NC(=O)/C(C#N)=C/c1ccc(O)c(O)c1)c1ccccc1	active: 35.5 µM	
CC(C)(C)c1nc2ccccc2c2nnc(SCC(=O)Nc3nc4ccccc4s3)n12	inconclusive: 89.1 µM [inhibitor, single point]	
N/C(=N\OC(=O)N1c2ccccc2Sc2ccccc21)c1ccccc1	inconclusive: 79.4 µM [inhibitor, single point]	
COc1cc(-c2[nH]ncc2CN2CCSCC2)cc(OC)c1OC		inactive: -3.48%
Nn1c(N2CCCCC2)nc2ccccc21	inconclusive: 89.1 µM [inhibitor, single point]	
COc1ccc(N(C(=O)c2ccncc2)S(=O)(=O)c2ccc3c4c(cccc24)C(=O)N3C)cc1	inconclusive: 100 µM [inhibitor, partial curve, poor fit]	
COC(=O)[C@@H]1CCCN1C(=O)CCc1nnc(C2CCCCC2)o1		inactive: 9.51%
O=C1Nc2ccc([N+](=O)[O-])cc2OC1CCN1CCN(Cc2ccc3c(c2)OCO3)CC1 (stereo not drawn)	inconclusive: 50.1 µM [inhibitor, partial curve]	
COc1ccc(C(=O)N/N=C/c2sc(N3CCOCC3)nc2-c2ccccc2)cc1OC		inactive: -24.9%
CCOC(=O)Cc1c(C)nc2cc(C)nn2c1C		inactive: 5.45%
COc1ccccc1N(C)S(=O)(=O)c1ccc(C(=O)NCc2ccc3c(c2)OCO3)cc1	inconclusive: 70.8 µM [inhibitor, single point]	

Compound	Potency	activity change, negative = inhibition
COc1cc(C2CC(=O)C3=C(C2)Nc2ncnn2C3c2cccs2)cc(OC)c1OC (stereo not drawn)		inactive: -9.74%
CS(=O)(=O)c1sc2nc(-c3cccs3)cc(-c3ccccc3)c2c1N	inconclusive: 89.1 µM [inhibitor, single point]	
Cc1ccc(S(=O)(=O)N2CCN(C(=O)c3ccco3)CC2)cc1C		inactive: 5.24%
CN1CCN(S(=O)(=O)c2ccc(N(C)Cc3ccc(C(F)(F)F)cc3)c([N+](=O)[O-])c2)CC1	active: 39.8 µM	
CN1C(=O)/C(=C2\SC(N3CCCCCC3)=NC2=O)c2ccccc21	inconclusive: 44.7 µM [inhibitor, full curve]	
CC(=O)C(Sc1ncnc2sc3c(c12)CCCC3)C(C)=O		inactive: 1.78%
CC12CCCCC1N(O)C(=O)C(=O)N2O (stereo not drawn)	inconclusive: 89.1 µM [inhibitor, single point]	
CCC(c1nnnn1Cc1ccccc1)N1CCN(c2ccc(OC)cc2)CC1 (stereo not drawn)	inconclusive: 79.4 µM [inhibitor, single point]	
COc1ccc(OC)c(NC(=O)c2ccno2)c1	inconclusive: 79.4 µM [inhibitor, single point]	
O=[N+]([O-])c1cc(Cc2ccccc2)cc(C=Nc2ccc(N3CCOCC3)cc2)c1O	active: 39.8 µM	
Cn1cccc1CC(=O)N/N=C\c1cccs1	active: 50.1 µM	
COc1ccc(N2CCN(c3ccc(NC(=O)/C=C\C(=O)O)cc3)CC2)cc1	inconclusive: 79.4 µM [inhibitor, single point]	
O=C(NCCNC(=O)c1cc(OCC(F)(F)F)ccc1OCC(F)(F)F)Nc1ccccc1	inconclusive: 89.1 µM [inhibitor, single point]	
OC1(c2ccc(OC(F)F)cc2)CSC(=Nc2cccnc2)N1C1CC1 (stereo not drawn)	inconclusive: 25.1 µM [inhibitor, single point]	
C/C(=N\NC(=O)Cc1c(F)cccc1Cl)c1cccnc1		inactive: -2.49%
O=C(c1cnn2c(C(F)F)cc(C3CC3)nc12)N1CCCC1		inactive: 7.83%
OCCCNCc1ccc(N(c2ccccc2)c2ccccc2)cc1	active: 56.2 µM	
Cc1cccc(C(c2c(C)nn(-c3ccccc3)c2N)c2c(C)nn(-c3ccccc3)c2N)c1	inconclusive: 35.5 µM [inhibitor, partial curve]	
Cc1cc(Cl)ccc1NS(=O)(=O)c1c(C(=O)N2CCC(C)CC2)c(C)n(C)c1C	inconclusive: 79.4 µM [inhibitor, single point]	
O=C(CSc1n[nH]c(=O)n1C1CC1)c1c[nH]c2ccccc12		inactive: 2.1%
Cc1ccc(-c2csc(-c3cc4c([nH]c3=O)CC(c3ccccc3)CC4=O)n2)cc1 (stereo not drawn)	active: 79.4 µM	
N#Cc1c(N)sc(=S)c2c1CCN(Cc1ccccc1)C2	active: 79.4 µM	
CCN(CC)S(=O)(=O)c1ccc(C(=O)OCC(=O)NCc2ccco2)cc1	active: 50.1 µM	
